# Data published in the RNAGym collection of RNA variant scans (doi:10.1093/nar/gkz1192).
# Read counts are not given, so values of variants with three or more changes are uncertain.
# B1: CPEB3 Ribozyme (parent)
# chain: UAACAGGGGGCCACAGCAGAAGCGUUCACGUCGCAGCCCCUGUCAGAUUCUGGUGAAUCUGCGAAUUCUGCUGUAUAUCUC
# Variants of: B1
# Experiment: self-cleavage, relative activity (ratio to wild type); higher = more cleavage; in vitro, sequencing
# Summary of the method: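 Relative activity was defined as the cleaved/total read fraction for a variant divided by the same fraction for the unmutated ribozyme. CPEB3 self-cleaving ribozyme libraries were made by rounds of error-prone PCR, barcoded, and transcribed in vitro with T7 RNA polymerase for 5 hours at 37°C, and cleavage ran through transcription plus a 15 min DNase I step before EDTA. Illumina sequencing of template-switched reverse transcripts gave the reads, and DNA sequencing mapped the barcodes. Averages come from three batches, using variants with at least 5 reads.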
row,Variant,self-cleavage
1,A5U A28G A35G A75U U80C,1.48
2,A5U C11A A18G C34U C40U U60A U69C,0.13
3,A5G U26G U41A,0.37
4,A5U A13U A18U U31A U41A,0.24
5,A5G U41C A57G C59U A64U,0.09
6,A5U G7U A28U A56G U58A G70A,0.06
7,A5U A13G U54C U72C,0.72
8,A5U G10A A13U U25C A35G U51C,0.27
9,A5U C23G A45G A56G A57G A65U U80A,0.06
10,A5U A45G U80A,0.7
11,A5G U31C U58C A65G U69C U80G,0.3
12,A5U G52U A56U U58A U72A,0.26
13,A5U U26A A35U G42U U43C,0.1
14,A5U A15G U43C U78C,0.43
15,A5U G30U C39A U41C U78C,0.24
16,A5U A65G U74C,0.58
17,A5U U31C C71U,0.31
18,A5U G10A A15G U54A,0.64
19,A5U U26C A35G C39U A64G U72C A77G,0.6
20,A5U A18U G30A C32A U41A A45U,0.2
21,A5G U31C U67A U72G U80C,0.18
22,A5U U41A U60A,0.24
23,A5U A18U A57G,0.28
24,A5G G46A A56U,0.14

row,Variant,self-cleavage
1,A5U A13G C29A U41C U78C,0.18
2,A5U G7U U48A A56G U58C U69C,0.16
3,A5U G30A U49A U76C A77G,0.33
4,A5G U54A U60C U67A A75G,0.09
5,A5U G7C A21G U43C U60C,0.44
6,A5U G10U A28G A65G U69A U72G U74A,0.03
7,A5G G46A G55A U74C,0.3
8,A5U C23A A35G C44G U48C U74C U78C,0.05
9,A5U A13G G19U C40U C44G A65U,0.06
10,A5U A35G U49C U54G A64G U72C,0.83
11,A5U A13G C17A U41C,0.1
12,A5U A56U C81U,0.92
13,A5U A15C A47G U60A,0.47
14,A5U A20G U26C A45G A56U,0.23
15,A5U A18U A21G U31A U41A,0.34
16,A5U G10C U31A U67A,0.08
17,A5U G10C C29U U31C G63A G70C G73A,0.05
18,A5U A20G U48C A57G G61C U78A,0.23
19,A5U G9A G33A U43C U80C,0.18
20,A5G U43A U51A A64G G70U A75U,0.22
21,A5U G22C U43A,0.28
22,A5U A20U G63A,0.46
23,A5U G36U U51A U54A A64G,0.14
24,A5U A45G A47U,0.37

row,Variant,self-cleavage
1,A5U A28G U54C U66C U78A,0.08
2,A5G U31C U48C U66C,0.47
3,A5U U51A A65G,0.38
4,A5U A47G U66G U67C U72C,0.26
5,A5U A35U U58C G61A,0.09
6,A5U U31C U54C,0.94
7,A5G U31A G53U U69C,0.13
8,A5G U25A A35U A64U G70U A75G,0.09
9,A5G U25C U26C A57G U66C U72C,0
10,A5G U26A U43A A57G C68U,0.26
11,A5U C17G U43C A57G,0.14
12,A5U C11A A15G U31A A45G G53A,0.09
13,A5G U26C U66C,0.26
14,A5U U31C C38A,0.37
15,A5U G70C U78C U80C,0.35
16,A5U A18U U54A A57G U78A U80C,0.29
17,A5G U41C A47G A57G,0.31
18,A5U U31G A47U A65G U80C,0.09
19,A5U A18G U41A U72C U80C,0.44
20,A5G U31A A57U G70C,0.1
21,A5G U72C U80C,0.85
22,A5U A13G U26C C40U C71U,0.13
23,A5U U26C C79U,0.81
24,A5U G8U C23A,0.05

row,Variant,self-cleavage
1,A5G U26A U31C U41A,0.37
2,A5G U41A A47G A65G,0.34
3,A5U A13G A20G A35G A64U,0.15
4,A5U A20U G24U A28U A57G,0
5,A5U A15G C44A U67C U74C,0.11
6,A5U G10A U48C,0.21
7,A5U U26C C71U U74C,0.41
8,A5U A13U A28G A35U A45G,0.44
9,A5U U26C U31C U41C U49C U78C,0.08
10,A5U U51C A56G U69G,0.4
11,A5U G53A A56G,0.88
12,A5U A35G A56G,1.32
13,A5U U25C U41A A45U U54A A64G U67C,0.18
14,A5U G6A U26A U43A A47G U80A,0.05
15,A5U A15U U26A A28U A45G U58C A64G,0.29
16,A5U U31A U43A,0.6
17,A5G G36C A64G U69A U72C,0.34
18,A5U A28U U41A A47U A75U A77G,0.2
19,A5U A18G A28G A35U U67C,0.15
20,A5U G24A U41C A45G U58A,0.48
21,A5U A13C U31C A45G U49C A57U,0.41
22,A5G G52C U80C,0.93
23,A5G U41C U54A U67C C81U,0.2
24,A5G U26A G30U,0.11

row,Variant,self-cleavage
1,A5U U25C U31A A45U U49C U69C U72A,0.08
2,A5U C14A U25G U41C,0.12
3,A5U U25C G42A,0.15
4,A5U U25C A28G U54C U67C,0.11
5,A5G U49C U51A U60C,0.15
6,A5U U25C U80A,0.14
7,A5U G6A A18U U26C U43A U80A,0.06
8,A5U A18U A28G A45G U72C,0.27
9,A5U G7U U51G A64G,0.12
10,A5U C14U U60C U72C,0.82
11,A5U U41G A77U,0.36
12,A5U U26A U43C U66C,0.23
13,A5G U26C U67C U74C,0.1
14,A5G U41C A56U A57G U66C,0.04
15,A5G U41C A64G,0.35
16,A5U U25A A35G,0.46
17,A5G U31A A35C U49C U51C U74C,0.07
18,A5G U26C U80A,0.58
19,A5U A13G A21G C34A A47G U58C U72C,0.42
20,A5U U41A A56U U58C A64G,0.15
21,A5U A15U U66A,0.28
22,A5U G8A A20G A47G,0.49
23,A5G U43A U80A,1.05
24,A5U U48C U78A,0.56

row,Variant,self-cleavage
1,A5U U25A A45G,0.08
2,A5G U41A U49C U69A U76A A77G,0.02
3,A5U A20G U41C U67C A77U,0.93
4,A5U A13U U41C,1.12
5,A5G U60A A64G U72A U80C,0.15
6,A5G U41A U60C,0.26
7,A5U U26C A35G U54G U60C A64U U67A,0.21
8,A5U A18G A45G C62U,0.1
9,A5U U31C U60A U69C U72G,0.32
10,A5U A13G U31C U49C C50U G55C A64G,0.13
11,A5U C62A U69A C71U,0.32
12,A5U A13U U48C,1.13
13,A5U G10A A13C U51C U54C,0.23
14,A5U G9A C39U U72C,0.21
15,A5U A13U G30A U41A A56U,0.08
16,A5U G19U U69C,0.19
17,A5U U41C A64G G73A,1.29
18,A5U G8C A35G U48G A57G U69C U78C,0.07
19,A5U A18C U43C U51C U69A,0.29
20,A5G U49C U51A U78G,0.43
21,A5U G10A G73A,0.71
22,A5U U48C A57G U58C,1.13
23,A5U G8C U66C U78C U80C C81U,0.2
24,A5G U26A A35G A45C U49A U66C,0.06

row,Variant,self-cleavage
1,A5U A28G U60C U74C,0.55
2,A5G U48C G52A U60C A64U U72A U80C,0.09
3,A5G U67C U72C,0.56
4,A5U A18U A28C U72C U74C C81A,0.27
5,A5U C17G U25C U66A U72C C79A,0.11
6,A5U G22A U51C G73U,0.35
7,A5U A28U U43C A57U A64C U74C,0.12
8,A5U C62G U78C,0.15
9,A5G U31C U41A A65G U72C,0.08
10,A5U A13U A21G A45G U54A U67C U69C,0.16
11,A5U U41A U51C C62G U66C G73A,0.03
12,A5U A57G C68U,0.86
13,A5U U41C A56G,0.66
14,A5G U41C U43A U66C,0.33
15,A5G U31C G46A U66A A75U U76A,0.14
16,A5U A18G U26A G30U U69A,0.05
17,A5U C23A C71A,0.14
18,A5U A15G A64G U76A,0.65
19,A5G U43C U69A,0.26
20,A5G G53U A56G A57U,0.28
21,A5U A20G A35C C44A,0.28
22,A5G U25C C34U A65G,0.09
23,A5G U43C A77G,0.42
